{
  "source": "patent US20230101735A1",
  "about": "“ANTI-TROP-2 ANTIDODY-EXATECAN ANALOG CONJUGATE AND MEDICAL USE THEREOF” (JIANGSU HENGRUI MEDICINE CO., LTD., priority 2020, published 2023)",
  "molecules": {"B1": {"name": "TINA: anti-TROP-2 antibody, heavy chain SEQ ID NO: 17, light chain SEQ ID NO: 18, constructed with reference to WO2015098099a1 (antibody)", "heavy": "QVQLVQSGAEVKKPGASVKVSCKASGYTFTTAGMQWVRQAPGQGLEWMGWINTHSGVPKYAEDFKGRVTISADTSTSTAYLQLSSLKSEDTAVYYCARSGFGSSYWYFDVWGQGTLVTVSS[human IgG1 constant region not printed]", "light": "DIQMTQSPSSLSASVGDRVTITCKASQDVSTAVAWYQQKPGKAPKLLIYSASYRYTGVPSRFSGSGSGTDFTLTISSLQPEDFAVYYCQQHYITPLTFGQGTKLEIKRTVAAPSVFIFPPSDEQLKSGTASVVCLLNNFYPREAKVQWKVDNALQSGNSQESVTEQDSKDSTYSLSSTLTLSKADYEKHKVYACEVTHQGLSSPVTKSFNRGEC", "modifications": "Heavy chain of TINA; Light chain of TINA"}, "B2": {"name": "ADC-4: antibody TINA conjugated with compound 58; made with reference to Example 19 in WO2015098099 (conjugate)", "heavy": "B1 heavy", "light": "B1 light"}, "B3": {"name": "ADC-5: antibody PD3 conjugated with compound 58 (Example 58 of CN104755494A) (conjugate)", "heavy": "EVQLVQSGSELKKPGASVKVSCKASGYTFTNYGMNWVKQAPGQGLKWMGWINTYTGEPTYTQDFKGRFAFSLDTSVSTAYLQISSLKAEDTAVYYCARGGFGSSYWYFDVWGQGTLVTVSS[human IgG1 constant region not printed]", "light": "B1 light with M4L, T20S, T31I, S60D, Q100A, L104V"}},
  "key": {"TROP-2": {"system": "TROP-2", "assay": "Antibody endocytosis assay (DT3C cell killing)", "type": "cell-based", "settings": "antibody-DT3C mixture, three days, CTG"}, "hTROP-2": {"molecular_target": "T1, hTROP-2 (Homo sapiens, UniProt P09758)", "T1 sequence (P09758 27-274)": "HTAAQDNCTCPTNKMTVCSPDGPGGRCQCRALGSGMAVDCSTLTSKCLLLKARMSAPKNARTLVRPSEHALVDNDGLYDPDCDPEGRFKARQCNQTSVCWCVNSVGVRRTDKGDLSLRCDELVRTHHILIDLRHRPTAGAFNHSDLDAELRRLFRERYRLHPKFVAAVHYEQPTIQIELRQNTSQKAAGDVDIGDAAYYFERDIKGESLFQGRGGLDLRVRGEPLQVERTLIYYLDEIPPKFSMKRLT", "assay": "Antibody protein level binding assay (ELISA)", "settings": "absorbance at 450 nm", "protocol": "hTROP-2 protein was diluted to 1 μg/mL with PBS buffer at pH 7.4 (Shanghai BasalMedia Technologies Co., LTD., B320), added into a 96-well microplate at 100 μL per well, and incubated at 4° C. overnight. After the liquid was discarded, 300 μL of 5% skim milk (BD, 232100) diluted with PBS was added into each well for blocking and incubated at 37° C. for 2 h. After the blocking was completed, the blocking solution was discarded; after the plate was washed 3 times with PBST buffer (pH 7.4, PBS containing 0.1% tween-20), 100 μL of a gradient diluted antibody solution was added into each well and incubated at 37° C. for 1 h. After the incubation was completed, the plate was washed 3 times with PBST buffer, and 100 μL of 1:8000 diluted mouse anti-human IgG (H+L) (Jackson ImmunoResearch, 209-035-088) was added into each well and incubated at 37° C. for 1 h. After the plate was washed 3 times with PBST buffer, 100 μL of TMB chromogenic substrate (KPL, 5120-0077) was added into each well and incubated at room temperature for 10-15 min, and the reaction was terminated by adding 50 μL of 1 M H2504 into each well. The plate was detected for the absorbance at 450 nm using a microplate reader, the binding curves of antibodies to antigen were fitted with software, and the EC50 value was calculated."}, "CHO-K1": {"system": "CHO-K1", "assay": "Cell activity assay of ADC molecules, CHO-K1", "type": "cell-based, Chinese hamster", "settings": "Table 6-1; CHO-K1 (TROP-2 not expressed), 6 days, CTG", "description": "(§1) The cells used in this assay were as follows: FaDu (+++) purchased from ATCC, Cat. #HTB-43™; HCC827(+++), purchased from ATCC, Cat. #CRL-2868; Colo205(++), purchased from Cell Bank, Chinese Academy of Sciences, Cat. #TCHu102; DMS53 (++), purchased from ATCC, Cat. #CRL-2062™; SK-OV-3(+), purchased from ATCC, Cat. #HTB-77; CHO-K1(−), purchased from ATCC, Cat. #CCL-61™; wherein “+” represents the expression amount of TROP-2 in the cell population, more “+” means that the expression amount of TROP-2 is higher, and “−” means that TROP-2 is not expressed.\n(§2) Cell suspensions were prepared with fresh cell medium containing 10% FBS at a density of 3703 cells/mL, and added into the 96-well cell culture plate at 135 μL/well and incubated with 5% carbon dioxide at 37° C. for 16 h. ADC samples were formulated at 5 μM with PBS. The 5 μM of initial concentration was diluted five times with PBS for a total of 8 concentrations. 15 μL of the above ADC solution was added into each well. […] 70 μL of CTG was added into each well and incubated for 10 min at room temperature in dark, the chemiluminescence values were detected using Victor3, and data analysis was performed using the GraphPad Prism software."}, "Colo205 xenograft tumors": {"system": "Colo205 xenograft tumors", "assay": "In vivo efficacy, Colo205 cell CDX mouse model", "design": "species or system Balb/c nude mice", "settings": "10 mg/kg i.p. at day 0 and day 10", "protocol": "(§3) Colo205 cells (5×10^6) were subcutaneously inoculated in the right flank of Balb/c nude mice, after 10 days of inoculation, the nude mice with heavy weight, too big tumor and too small tumor were removed after the tumor volume was about 245 mm^3, and the remaining mice were randomized into 6 groups of 8 mice according to tumor volume.\nEach mouse was intraperitoneally injected with an ADC at 0.1 mL/10 g body weight at day 0 (DO) and day 10, making a total of 2 injections with a dose of 10 mg/kg. The tumor volumes and body weights were measured twice a week and the results were recorded for 28 days (D28).\n(§4) Data were recorded using Excel statistical software: the mean values were calculated as avg; the SD values were calculated as STDEV; the SEM values were calculated as STDEV/SQRT (number of animals per group); GraphPad Prism software was used for plot, and statistical analysis of the data was performed using Two-way ANOVA or One-way ANOVA.\n(§5) Tumor volume (V) was calculated as: V=½×Llong×Lshort^2\n(§6) Relative tumor proliferation rate T/C(%)=(T−T0)/(C−C0)×100, wherein T and C are the tumor volumes of animals at the end of the experiment in the treatment group and control group, respectively; To and Co are the tumor volumes of animals at the beginning of the experiment in the treatment group and control group, respectively."}, "FaDu xenograft tumors": {"system": "FaDu xenograft tumors", "assay": "In vivo efficacy, Fadu cell CDX mouse model", "design": "species or system Balb/c nude mice", "settings": "1 mg/kg i.p. at days 0 and 8", "protocol": "as §3, with “Fadu” for “Colo205”, “(3×10^6)” for “(5×10^6)”, “5” for “6”\nEach mouse was intraperitoneally injected with an ADC at 0.1 mL/10 g body weight at days 0 and 8, making a total of 2 injections with a dose of 1 mg/kg. The tumor volumes and body weights were measured twice a week and the results were recorded for 21 days.\nas §4, §5, §6"}, "SKOV3 xenograft tumors": {"system": "SKOV3 xenograft tumors", "assay": "In vivo efficacy, SKOV3 cell CDX mouse model", "design": "species or system Balb/c nude mice", "settings": "2 injections; for Mean tumor volume (mm^3) D21 / Tumor inhibition rate TGI (%): D21", "protocol": "as §3, with “SKOV3 cells” for “Colo205 cells”, “after 23” for “after 10”, “about 180” for “about 245”, “into 5” for “into 6”\nEach mouse was intraperitoneally injected with an ADC at 0.1 mL/10 g body weight for a total of 2 injections, and the dose is shown in following table. The tumor volumes and body weights were measured twice a week and the results were recorded. Data were recorded using Excel statistical software: the mean values were calculated as avg; the SD values were calculated as STDEV; the SEM values were calculated as STDEV/SQRT (number of animals per group); GraphPad Prism software was used for plot, and statistical analysis of the data was performed using Two-way ANOVA or One-way ANOVA.\nas §5\nas §6, with “T0” for “To”, “C0” for “Co”"}, "HCC827": {"system": "HCC827", "assay": "Cell activity assay of ADC molecules, HCC827", "type": "cell-based", "settings": "Table 6-2; second parallel comparison assay", "description": "as §1, §2"}, "Colo205": {"system": "Colo205", "assay": "Cell activity assay of ADC molecules, Colo205", "type": "cell-based", "settings": "Table 6-2; second parallel comparison assay", "description": "as §1, §2"}, "FaDu": {"system": "FaDu", "assay": "Cell activity assay of ADC molecules, FaDu", "type": "cell-based", "settings": "Table 6-2; second parallel comparison assay", "description": "as §1, §2"}, "DMS53": {"system": "DMS53", "assay": "Cell activity assay of ADC molecules, DMS53", "type": "cell-based", "settings": "Table 6-2; second parallel comparison assay", "description": "as §1, §2"}},
  "note": "Positions count from the first letter of the chain named.",
  "data": [
    {"molecule": "B1", "values": [
      {"measurement": "EC50", "setting": "TROP-2", "value": 0.18, "unit": "nM"},
      {"measurement": "Emax", "setting": "TROP-2", "value": 98.7, "unit": "%"},
      {"measurement": "Emax (OD value)", "setting": "hTROP-2", "value": 1.39, "unit": "OD value"}
    ]},
    {"molecule": "B2", "values": [
      {"measurement": "CHO-K1 Emax (%)", "setting": "CHO-K1", "value": 1.71, "unit": "%"},
      {"measurement": "Mean tumor volume (mm^3) D0", "setting": "Colo205 xenograft tumors; D0", "value": 201.52, "unit": "mm^3"},
      {"measurement": "Mean tumor volume (mm^3) D28", "setting": "Colo205 xenograft tumors; D28", "value": 513.83, "unit": "mm^3"},
      {"measurement": "Tumor inhibition rate TGI (%)", "setting": "Colo205 xenograft tumors; D28", "value": 73, "unit": "%"},
      {"measurement": "Mean tumor volume (mm^3) D0", "setting": "FaDu xenograft tumors; D0", "value": 244.41, "unit": "mm^3"},
      {"measurement": "Mean tumor volume (mm^3) D21", "setting": "FaDu xenograft tumors; D21", "value": 1180.96, "unit": "mm^3"},
      {"measurement": "Tumor inhibition rate TGI (%)", "setting": "FaDu xenograft tumors; D21", "value": 53, "unit": "%"},
      {"measurement": "Mean tumor volume (mm^3) D0", "setting": "SKOV3 xenograft tumors; 1 mg/kg i.p.", "value": 185.17, "unit": "mm^3"},
      {"measurement": "Mean tumor volume (mm^3) D21", "setting": "SKOV3 xenograft tumors; 1 mg/kg i.p.", "value": 1110.52, "unit": "mm^3"},
      {"measurement": "Tumor inhibition rate TGI (%)", "setting": "SKOV3 xenograft tumors; 1 mg/kg i.p.", "value": "−3", "unit": "%"},
      {"measurement": "Mean tumor volume (mm^3) D0", "setting": "SKOV3 xenograft tumors; 3 mg/kg i.p.", "value": 184.17, "unit": "mm^3"},
      {"measurement": "Mean tumor volume (mm^3) D21", "setting": "SKOV3 xenograft tumors; 3 mg/kg i.p.", "value": 873.38, "unit": "mm^3"},
      {"measurement": "Tumor inhibition rate TGI (%)", "setting": "SKOV3 xenograft tumors; 3 mg/kg i.p.", "value": 23, "unit": "%"},
      {"measurement": "Mean tumor volume (mm^3) D0", "setting": "SKOV3 xenograft tumors; 10 mg/kg i.p.", "value": 183.83, "unit": "mm^3"},
      {"measurement": "Mean tumor volume (mm^3) D21", "setting": "SKOV3 xenograft tumors; 10 mg/kg i.p.", "value": 938.99, "unit": "mm^3"},
      {"measurement": "Tumor inhibition rate TGI (%)", "setting": "SKOV3 xenograft tumors; 10 mg/kg i.p.", "value": 16, "unit": "%"}
    ]},
    {"molecule": "B3", "values": [
      {"measurement": "HCC827 Emax (%)", "setting": "HCC827", "value": 88.23, "unit": "%"},
      {"measurement": "Colo205 Emax (%)", "setting": "Colo205", "value": 99.64, "unit": "%"},
      {"measurement": "FaDu Emax (%)", "setting": "FaDu", "value": 101.58, "unit": "%"},
      {"measurement": "DMS53 Emax (%)", "setting": "DMS53", "value": 92.47, "unit": "%"}
    ]}
  ]
}
